Measured values from PubChem BioAssay AID588342 (National Center for Advancing Translational Sciences (NCATS), 2011).
Several values for one entry are separate records, joined by “and”; a condition that tells them apart may be missing. Equal entries are not always repeated. Out of some 360,000 compounds screened, about 25,000 (6.9%) were called active. The inconclusive results got no clear call from the source; some entries with a clear call stand among them for comparison. Calls come from the whole dose curve; as a rule, active = well fitted inhibition curve with a large enough effect; inconclusive = small, poorly fitted or top-dose-only effect; inactive = flat fitted curve, though single readings scatter. Where the call is inconclusive, the potency comes from a doubtful curve fit.

biological target: Luciferin 4-monooxygenase (Photinus pyralis) (UniProt P08659); test: qHTS profiling assay for firefly luciferase inhibitor/activator using purifed enzyme and Km concentrations of substrates (counterscreen for miR-21 project); conditions: purified FLuc, luminescence inhibition; series mostly up to 57.5 µM; note: nearly all actives have a fitted effect of over 55% in size
How it was run: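 Purified P. pyralis luciferase (10nM final) with 10uM D-luciferin and 10uM ATP (Km levels) in 50mM Tris acetate pH 7.5, 10mM Mg acetate, 0.01% Tween-20, 0.05% BSA; qHTS 6-point titration, ~60 µM downward; luminescence read.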
Potency is the fitted concentration of half-maximal effect; tags give direction and shape of the fitted curve.

Sequence of UniProt P08659 (P08659 whole entry, looked up): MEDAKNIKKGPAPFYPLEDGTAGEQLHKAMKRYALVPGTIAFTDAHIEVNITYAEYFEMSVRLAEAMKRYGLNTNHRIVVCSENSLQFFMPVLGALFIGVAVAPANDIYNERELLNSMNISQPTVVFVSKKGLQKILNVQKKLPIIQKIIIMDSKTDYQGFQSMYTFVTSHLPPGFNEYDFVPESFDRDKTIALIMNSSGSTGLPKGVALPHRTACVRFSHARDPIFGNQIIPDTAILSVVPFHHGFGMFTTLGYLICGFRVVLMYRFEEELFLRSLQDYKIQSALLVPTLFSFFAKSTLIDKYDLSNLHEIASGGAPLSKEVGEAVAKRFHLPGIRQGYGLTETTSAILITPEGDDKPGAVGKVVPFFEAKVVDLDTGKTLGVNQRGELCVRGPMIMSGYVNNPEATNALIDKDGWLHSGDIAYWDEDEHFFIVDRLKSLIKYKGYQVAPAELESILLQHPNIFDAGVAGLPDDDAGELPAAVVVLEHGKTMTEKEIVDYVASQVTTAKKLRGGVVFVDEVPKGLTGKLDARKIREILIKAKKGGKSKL

| Structure (SMILES) | Potency |
| --- | --- |
| CC(C)Oc1ccc(CCc2n[nH]c(=S)n2-c2ccccc2)cc1 | inconclusive: 30.1 µM [inhibitor, partial curve, poor fit] |
| COC(=O)Cc1[nH]n(-c2ccccc2)c(=O)c1C(C)=Nc1ccccc1 | inconclusive: 37.9 µM [inhibitor, partial curve, poor fit] |
| Cc1ccc(NC(=O)CCSc2ccccc2)c(C)c1 | inconclusive: 37.9 µM [inhibitor, partial curve, poor fit] |
| COc1ccccc1/C=C/c1nc2ccccc2n1C(C)C | active: 3.38 µM |
| COc1ccccc1NC(=O)Nc1cccc(C)n1 | inconclusive: 7.57 µM [inhibitor, full curve] |
| COc1ccc(Cl)cc1NC(=O)Cc1ccc(NC(=O)N2CCCCc3ccccc32)cc1 | inconclusive: 4.26 µM [inhibitor, partial curve, poor fit] |
| CN1C(=O)Cc2cc(S(=O)(=O)N3CCN(c4ccccc4F)CC3)ccc21 | inactive |
| O=C(OCc1ccccc1Cl)c1ccccc1C(=O)c1ccccc1 | inconclusive: 37.9 µM [inhibitor, partial curve, poor fit] |
| O=C(NCc1ccco1)c1ccc2c(c1)C(=O)c1ccccc1-2 | inconclusive: 19 µM [inhibitor, partial curve, poor fit] |
| Cc1noc(C)c1CSCC(=O)Nc1nc2ccc(F)cc2s1 | inconclusive: 33.8 µM [inhibitor, partial curve, poor fit] |
| CCc1sc(C(=O)Nc2nccs2)cc1C | active: 1.35 µM |
| O=C(O)Cc1ccc(N=Nc2c(O)c(C(=O)O)cc3ccccc23)cc1 | inconclusive: 37.9 µM [inhibitor, partial curve, poor fit] |
| CC(C)(C)OC(=O)NCCCCCc1nnc(SCc2c(F)cccc2Cl)o1 | inconclusive: 23.9 µM [inhibitor, partial curve, poor fit] |
| Cc1ccccc1Nc1c(-c2ccccn2)nc2c(C)cccn12 | inconclusive: 30.1 µM [inhibitor, single point] |
| O=Cc1ccc(-c2ccc(Cl)cc2Cl)[nH]1 | inconclusive: 15.1 µM [inhibitor, partial curve] |
| O=C1/C(=C/C=C/c2ccco2)SC(=S)N1NS(=O)(=O)c1ccccc1 | inconclusive: 37.9 µM [inhibitor, single point] |
| Brc1ccc(Nc2nc(-c3cccnc3)cs2)cc1 | inconclusive: 8.49 µM [inhibitor, partial curve] |
| Cc1ccc(NC(=O)CSc2nnc(Cc3csc(C)n3)o2)cc1 | inactive |
| CC(C)(C)c1nc2c(C#N)c(-c3ccc(Cl)cc3)ccn2n1 | inconclusive: 23.9 µM [inhibitor, partial curve, poor fit] |
| COc1ccc(CNC(=O)CN2C(=O)C(C)N(c3ccc(C)cc3)C2=O)cc1 (stereo not drawn) | inconclusive: 37.9 µM [inhibitor, partial curve, poor fit] |
| Cc1ccc2c(c1)c1c(c(=O)n(-c3cccc(Cl)c3)c(=O)n1CC(=O)Nc1c(C)cccc1C)n2C | inactive |
| CCOC(=O)c1ccccc1NC(=O)CSc1nc2cn(CC)nc2c(=O)n1Cc1ccc(Cl)cc1 | inactive |
| COc1ccc(/C=N/NC(=O)c2cccc(OC(F)(F)C(F)F)c2)cc1O | inconclusive: 23.9 µM [inhibitor, single point] |

| Structure (SMILES) | Potency |
| --- | --- |
| Cc1ccccc1OCc1nc2ccccc2c(=O)n1/N=C/c1ccco1 | inconclusive: 26.9 µM [inhibitor, single point] |
| COc1ccc(CN=C2NC(=O)CC(C(=O)Nc3ccccc3C)S2)cc1 (stereo not drawn) | inactive |
| CC(C)c1cc(NCC2CCCO2)n2c(nc3ccccc32)c1C#N (stereo not drawn) | inconclusive: 37.9 µM [inhibitor, partial curve, poor fit] |
| O=C(CC1N=C2c3ccccc3N=C(SCc3ccc(Cl)cc3)N2C1=O)NCc1cccs1 (stereo not drawn) | inconclusive: 37.9 µM [inhibitor, partial curve, poor fit] |
| CC(C)C(C)NC(=O)Cn1cnc2c(oc3ccccc32)c1=O (stereo not drawn) | inconclusive: 37.9 µM [inhibitor, partial curve, poor fit] |
| CC(=O)NC(=S)NNC(=O)c1ccc(Br)cc1 | inconclusive: 37.9 µM [inhibitor, single point] |
| Cc1ccc(C)c(CSc2ccc3nnc(-c4ccccn4)n3n2)c1 | inactive |
| CC(C)Oc1ccc(CNC(=O)c2cc3ccccn3n2)cc1 | inconclusive: 30.1 µM [inhibitor, single point] |
| O=C(CCn1c(=O)oc2ccccc21)n1c(=O)oc2ccccc21 | inconclusive: 26.9 µM [inhibitor, single point] |
| C=CCn1c(C)cc(C(=O)CSc2nnc(-c3cccc(S(=O)(=O)N(CC)CC)c3)o2)c1C | inconclusive: 9.53 µM [inhibitor, partial curve, poor fit] |
| Cc1ccc(C(=O)N/C(=C/c2ccco2)C(=O)OCN2C(=O)c3ccccc3C2=O)cc1 | active: 10.7 µM |
| COc1cc(C2/C(=C(\O)c3ccc4c(c3)CC(C)O4)C(=O)C(=O)N2CCN2CCOCC2)cc(OC)c1OC (stereo not drawn) | inactive |
| Cc1cc2cc(CNC(=O)c3cccs3)ccc2n1C | inconclusive: 26.9 µM [inhibitor, partial curve, poor fit] |
| CCn1c2ccccc2c2nnc(SCC(=O)O)nc21 | inconclusive: 23.9 µM [inhibitor, partial curve, poor fit] |
| CCn1c(COc2cccc(C)c2)nnc1SCC(=O)CC(=O)Nc1ccccc1OC | inconclusive: 37.9 µM [inhibitor, single point] |
| Cc1ccc(-c2nc3c4ccccc4n(CC(=O)N4CCN(c5ccccc5F)CC4)c(=O)n3n2)cc1 | inactive |
| Cc1ccc(NC(=O)CN(C)S(=O)(=O)c2ccc3c(c2)n(C)c(=O)c(=O)n3C)cc1C | inactive |
| c1ccc(-c2nnc(CSc3ccc4c(c3)OCCO4)o2)cc1 | inconclusive: 37.9 µM [inhibitor, single point] |
| CC(NC(=O)Cc1ccsc1)c1ccc(Cl)cc1Cl (stereo not drawn) | inactive |
| COC(=O)[C@]1(S(=O)(=O)c2ccccc2)C[C@@H]2ON=C(c3ccc(OC)cc3)[C@@H]2C1 | inactive |
| Cc1cc(N2CCN(c3ccccc3)CC2)n2cc(-c3ccccc3)nc2n1 | active: 23.9 µM |
| COCCNC(=O)c1cnn2c1NC(c1ccco1)CC2C(F)(F)F (stereo not drawn) | inactive |
| Cc1cccc2nc(-c3ccco3)c(Nc3ccc4c(c3)OCO4)n12 | inactive and inconclusive: 37.9 µM [inhibitor, partial curve, poor fit] |

| Structure (SMILES) | Potency |
| --- | --- |
| COc1cccc(CNC(=O)C2CCCN(c3nn4c(=O)cc(C)nc4s3)C2)c1 (stereo not drawn) | inactive |
| COc1ccc(OCCNC(=O)/C=C/c2ccc([N+](=O)[O-])cc2)cc1 | inconclusive: 26.9 µM [inhibitor, single point] |
| Cc1cccc(C(=O)O/N=C2\CCS(=O)(=O)c3sccc32)c1 | active: 3.38 µM |
| O=c1[nH]c(S)nc2sc3c(c12)CCCC3 | inconclusive: 26.9 µM [inhibitor, single point] |
| Nc1cc(C(=O)c2cccs2)ccc1Cl | inconclusive: 37.9 µM [inhibitor, partial curve, poor fit] |
| CCc1ccc(NC(=O)c2ccc3c(O)c(S(=O)(=O)c4ccc(Cl)cc4)c(=O)[nH]c3c2)cc1 | active: 7.57 µM |
| CSc1nsc(SC)c1C(=O)Nc1ccc(C)cc1 | inconclusive: 15.1 µM [inhibitor, partial curve] |
| NC(=O)c1cccc(-c2noc(-c3ccccc3F)n2)c1 | active: 2.69 µM |
| Cc1ccc(C)c(NC(=O)CN2C(=O)CCc3ccccc32)c1 | inconclusive: 23.9 µM [inhibitor, partial curve] |
| COC(=O)c1ccc2c(c1)C(=O)/C(=C/c1ccc(C)cc1)O2 | inconclusive: 10.7 µM [inhibitor, partial curve] |
| CC(=O)c1ccc(OC(=O)COc2ccccc2Cl)cc1 | inconclusive: 26.9 µM [inhibitor, partial curve, poor fit] |
| CC(=O)c1cccc(N(C(=O)c2ccco2)C(C(=O)NC2CCCC2)c2ccccc2F)c1 (stereo not drawn) | inconclusive: 42.6 µM [inhibitor, partial curve, poor fit] |
| COc1ccc(-c2cc(C(=O)O)n(Cc3ccccc3)n2)cc1 | inconclusive: 15.1 µM [inhibitor, partial curve, poor fit] |
| Nc1c(C(=O)Nc2ccc3c(c2)OCCO3)nnn1Cc1ccccc1Cl | inconclusive: 2.69 µM [inhibitor, partial curve] |
| Cc1ccnc(NC(=O)c2cccc(S(=O)(=O)N3CCN(c4ccccc4)CC3)c2)c1 | active: 1.9 µM |
| COc1ccc(-c2cc(C(=O)Nc3nc4ccccc4s3)c3ccccc3n2)cc1OC | active: 16.9 µM |
| CC(=O)N1CCc2cc(S(=O)(=O)NC(CC(C)C)C(=O)Nc3ccc4c(c3)OCCO4)ccc21 (stereo not drawn) | inactive |
| COc1ccc2c(c1)CCc1cc(C(=O)O)sc1-2 | inconclusive: 37.9 µM [inhibitor, single point] |
| c1ccc(-c2n[nH]c3ccccc23)cc1 | inconclusive: 21.3 µM [inhibitor, partial curve, poor fit] |
| CC(=O)c1c(C)oc2ccc(NS(=O)(=O)c3ccc(F)cc3C)cc12 | inactive |
| CCCOc1ccc(N2C(=O)C3ON(c4ccccc4)C(CCC)C3C2=O)cc1 (stereo not drawn) | inactive |
| CSc1cccc(NC(=O)CCCOc2ccccc2)c1 | inconclusive: 37.9 µM [inhibitor, partial curve, poor fit] |
